The campaign covered roughly 43,000 compounds. About 830 (1.9%) were called active. The shares of active, inactive and inconclusive entries below differ from those in the screen. Rule for the calls: active = clear falling dose curves in both reporters; inconclusive = both reporters move, but less clearly or upward; inactive = either reporter flat; the % is the NLuc reporter signal. No potency is given beside an inconclusive call; the fits are too rough.
experiment: Cell-based coincidence reporter assay to measure PMP22 gene transcription in S16 Pmp22-F2sN cells - Primary screen; conditions: S16 Pmp22-F2sN Schwann cells (luciferase reporters placed in the Pmp22 gene), FLuc/NLuc coincidence luminescence, 24 h; measured here: NLuc reporter readout, at 57.5 µM (top of the series)
In short: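 Transcriptional readout in edited S16(c9) cells: two luciferases reported from the Pmp22 locus, measured in turn after 24 h compound incubation.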
Potency is the fitted concentration of half-maximal effect; tags give direction and shape of the fitted curve.

SMILES | Potency
CCOc1ccc(-c2cc(NC(=O)Nc3ccccc3C(F)(F)F)c(C(=O)OC)s2)cc1 | inconclusive [phenotype inactive, single point]
COc1ccc(OC)c(CCNC(=O)CN2C(=O)COc3ccc(S(=O)(=O)N4CCCCCC4)cc32)c1 | inconclusive [phenotype inactive, partial curve, poor fit]
COc1cc(CN2CCN(S(=O)(=O)c3ccc(F)cc3)CC2)cc(OC)c1OC | inconclusive [phenotype inactive, single point]
O=C(CSc1nc2ccccc2nc1Cc1ccccc1)N1CCCc2ccccc21 | inconclusive [phenotype inactive, single point]
CCOC(=O)c1c(Nc2cccc(C)c2)nnc(-c2ccccc2)c1-c1ccccc1 | inconclusive [phenotype inactive, single point]
O=C(C1CCCCC1)N(Cc1cccnc1)c1nc2ccc(F)cc2s1 | inconclusive [phenotype inactive, single point]
Cc1ccc(CNC(=O)c2cccc(Nc3nc4ccccc4n4nnnc34)c2)cc1 | active: 11.3 µM
CCc1nc2ccc(C(=O)NCCc3ccc(OC)cc3OC)cc2nc1CC | inconclusive [phenotype inactive, single point]
CCCOCc1cc(CN2CCN(c3ccccc3OC)CC2)c(O)c2ncccc12 | active: 5.77 µM
Cc1cccc(C)c1NC(=O)CN(C)S(=O)(=O)c1ccc2[nH]c3c(c2c1)CCCC3 | inconclusive [phenotype inactive, single point]
CCOc1ccc(C(=O)Nc2ccc3nc4c(c(Nc5ccccc5OC)c3c2)CCCC4)cc1 | inconclusive [phenotype inactive, partial curve, poor fit]
COc1ccccc1-c1cc2nc(C)c(CCC(=O)NC3CCCCC3)c(C)n2n1 | inactive
Cc1ccc(NC(=O)C2CCCN(c3ncnc4onc(C)c34)C2)cc1Cl (configuration not stated) | inconclusive [phenotype inactive, single point]
COc1cc(OC)c(NC(=O)C(C)n2nc(-c3ccc(C)cc3)c3c(c2=O)CCCC3)cc1Cl (configuration not stated) | inconclusive [phenotype inactive, single point]
CCn1c(=O)c2cc(C(=O)NCCc3ccc(Cl)cc3)sc2c2ccccc21 | inactive
Cc1ccc(OCCSc2nc3ccc(NC(=O)c4ccco4)cc3s2)cc1 | inconclusive [phenotype inactive, single point]
COC(=O)c1ccc(-n2c(/C=C/c3cc(OC)c(OC)c(OC)c3)nc3cc(Cl)ccc3c2=O)cc1 | inconclusive [phenotype inactive, single point]
COc1ccc(OCc2ccc(-c3nc(C#N)c(NCc4cccnc4)o3)o2)cc1 | inconclusive [phenotype inactive, partial curve, poor fit]
COC(=O)c1ccccc1NC(=O)Cn1c(=O)n(CCCC(=O)NCc2ccccc2Cl)c(=O)c2ccccc21 | inconclusive [phenotype inactive, partial curve]

SMILES | Potency
CCOc1ccc(/C=C/c2nc(C#N)c(NCCCN(C)C)o2)cc1 | inconclusive [phenotype inactive, single point]
CCc1ccc(NC(=O)CCCc2nnc3n(CCCOC)c(=O)c4sccc4n23)cc1 | inconclusive [phenotype inactive, partial curve, poor fit]
COc1cc2ccccc2cc1C(=O)N1CCN(c2nc3c(F)cc(F)cc3s2)CC1 | inconclusive [phenotype inactive, single point]
COc1ccc(CCNC(=O)Cn2c(-c3ccc(F)cc3)cc(C(C)=O)c2C)cc1OC | inconclusive [phenotype inactive, single point]
COc1cc(-c2ccno2)ccc1S(=O)(=O)N1CCN(c2ccccc2)CC1 | inactive
COc1cccc(-c2nc3c(C#N)c[nH]n3c2NC2CCC(C)CC2)c1 (configuration not stated) | inconclusive [phenotype inactive, single point]
CS(=O)(=O)c1ncc(Cl)c(C(=O)Nc2c(C(=O)c3ccc(Cl)cc3)oc3ccccc23)n1 | inactive
Cc1cccc(Nc2nc3c(S(=O)(=O)c4ccc(Br)cc4)nnn3c3ccsc23)c1C | active: 11.9 µM
Cc1ccc(Cc2nc3ccccc3nc2SCC(=O)NCc2ccccc2Cl)cc1 | inconclusive [phenotype inactive, single point]
CCc1nc2nc(C)c(NS(=O)(=O)c3ccc(F)c(C)c3)c(=O)n2[nH]1 | inconclusive [phenotype inactive, single point]
CCOc1ccccc1NC(=O)CCc1c(C)nc2cc(-c3ccccc3)nn2c1C | inactive
COc1ccc(-c2c(C)nn3c(N4CCN(c5cc(Cl)ccc5C)CC4)cc(C)nc23)cc1OC | active: 15 µM
Cc1ccn2c(Nc3ccc4c(c3)OCCO4)c(-c3ccc(N(C)C)cc3)nc2c1 | inactive
O=C(NCCS(=O)(=O)N1CCN(c2ccccc2F)CC1)C1CC(=O)N(c2ccc(F)cc2)C1 (configuration not stated) | inactive
O=C1CCSc2ccc(S(=O)(=O)Nc3cccc(C(F)(F)F)c3)cc2N1 | inconclusive [phenotype inactive, single point]
Cc1cccc(NC(=O)N2CC=C(c3c[nH]c4ccccc34)CC2)c1C | inconclusive [phenotype inactive, single point]
Cc1sc2ncn(CC(=O)N3CCN(c4ccccc4)CC3)c(=O)c2c1S(=O)(=O)N1CCC(C)CC1 | inconclusive [phenotype inactive, single point]
CCc1ccc2occ(CC(=O)Nc3ccc(C)c(C)c3)c2c1 | inconclusive [phenotype inactive, partial curve, poor fit]

From PubChem BioAssay AID1508649 (National Center for Advancing Translational Sciences (NCATS), 2021)
